Experimental data reported in PubChem BioAssay (Tox21).
“And” between values parts separate entries of the source, which are not always exact repeats. Equal entries are not always repeated. The source made the active and inactive calls. Unless noted, calls come from the whole dose curve; as a rule, active = well fitted curve in the direction sought with a large enough effect in the repeat runs; inconclusive = weak or mixed curves; inactive = no such curve, though single readings can be large; an effect the other way counts as inactive or inconclusive.

Assays:
[1] = qHTS assay for small molecule agonists of the p53 signaling pathway (AID 651631; calls by dose curve; note: nearly all actives have a fitted effect of over 15% in size; note: potency is the fitted concentration of half-maximal effect; for activation: % is set by controls: 0 for no effect and ±100 for the full control effect); settings: HCT-116 p53RE-bla reporter, beta-lactamase FRET ratio, 16 h; activation: at 73.3 µM (top of the series) unless noted
Summary of the method: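 HCT-116 cells carrying a beta-lactamase reporter under p53 response elements were dosed with compound for 16 h at 37 °C. LiveBLAzer B/G FRET substrate was then added for 2 h at room temperature, and fluorescence intensity was read to detect pathway agonism.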

[2] = qHTS assay for small molecule disruptors of the mitochondrial membrane potential (AID 720635); settings: HepG2 mitochondrial membrane potential, Mito-MPS dye ratio; ratio activity, negative = MMP loss: at 83.2 µM (top of the series) unless noted; note: potency is the fitted concentration of half-maximal effect; for ratio activity, negative = MMP loss: % is set by controls: 0 for no effect and ±100 for the full control effect
Summary of the method: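 Mitochondrial membrane potential tracked with Mito-MPS dye, red aggregates (ex 540/em 590 nm) against green monomers (ex 490/em 535 nm). Compound treatment 1 hr at 37C, dye 30 min in HepG2.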

[3] = qHTS assay to test for compound auto fluorescence at 460 nm (blue) in HepG2 cells (AID 720687); note: potency is the fitted concentration of half-maximal effect
Summary of the method: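 Blue-channel autofluorescence (Ex/Em 405/460 nm, triamterene-equivalent) was measured after 1 hr compound exposure at 37 C, 5% CO2. Cells were HepG2, plated overnight at 37 C in MEM plus 10% FBS.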

[4] = qHTS assay to identify small molecule antagonists of the glucocorticoid receptor (GR) signaling pathway - cell viability counter screen (AID 720693); settings: GR-bla HeLa viability, CellTiter-Glo luminescence, 18 h, with 5 nM dexamethasone present; viability change, negative = cytotoxic: at 58.5 µM (top of the series); note: potency is the fitted concentration of half-maximal effect; nearly all actives have a fitted effect of over 55% in size
[5] = qHTS assay to identify small molecule antagonists of the androgen receptor (AR) signaling pathway - cell viability counter screen (AID 743033; note: potency is the fitted concentration of half-maximal effect; nearly all actives have a fitted effect of over 45% in size); settings: AR-bla HEK293 viability, CellTiter-Glo luminescence, 16 h; activity change, negative = cytotoxicity: at 58.5 µM (top of the series) unless noted
[6] = biological target: Androgen receptor (Homo sapiens) (UniProt P10275); experiment: qHTS assay to identify small molecule antagonists of the androgen receptor (AR) signaling pathway (AID 743035; active = well fitted inhibition curve with a large enough effect in the signal ratio in the repeat runs, not every such curve was filed as active; inconclusive = weak or mixed curves, or effect the other way; inactive = no such curve, though single readings can be large or run the other way; the % refers to the signal ratio; note: potency is the fitted concentration of half-maximal effect); settings: HEK293 AR-UAS-bla, R1881-stimulated, beta-lactamase FRET, 16 h; activity change, negative = inhibition: at 58.5 µM (top of the series) unless noted
Chain of UniProt P10275 (P10275 whole entry, looked up): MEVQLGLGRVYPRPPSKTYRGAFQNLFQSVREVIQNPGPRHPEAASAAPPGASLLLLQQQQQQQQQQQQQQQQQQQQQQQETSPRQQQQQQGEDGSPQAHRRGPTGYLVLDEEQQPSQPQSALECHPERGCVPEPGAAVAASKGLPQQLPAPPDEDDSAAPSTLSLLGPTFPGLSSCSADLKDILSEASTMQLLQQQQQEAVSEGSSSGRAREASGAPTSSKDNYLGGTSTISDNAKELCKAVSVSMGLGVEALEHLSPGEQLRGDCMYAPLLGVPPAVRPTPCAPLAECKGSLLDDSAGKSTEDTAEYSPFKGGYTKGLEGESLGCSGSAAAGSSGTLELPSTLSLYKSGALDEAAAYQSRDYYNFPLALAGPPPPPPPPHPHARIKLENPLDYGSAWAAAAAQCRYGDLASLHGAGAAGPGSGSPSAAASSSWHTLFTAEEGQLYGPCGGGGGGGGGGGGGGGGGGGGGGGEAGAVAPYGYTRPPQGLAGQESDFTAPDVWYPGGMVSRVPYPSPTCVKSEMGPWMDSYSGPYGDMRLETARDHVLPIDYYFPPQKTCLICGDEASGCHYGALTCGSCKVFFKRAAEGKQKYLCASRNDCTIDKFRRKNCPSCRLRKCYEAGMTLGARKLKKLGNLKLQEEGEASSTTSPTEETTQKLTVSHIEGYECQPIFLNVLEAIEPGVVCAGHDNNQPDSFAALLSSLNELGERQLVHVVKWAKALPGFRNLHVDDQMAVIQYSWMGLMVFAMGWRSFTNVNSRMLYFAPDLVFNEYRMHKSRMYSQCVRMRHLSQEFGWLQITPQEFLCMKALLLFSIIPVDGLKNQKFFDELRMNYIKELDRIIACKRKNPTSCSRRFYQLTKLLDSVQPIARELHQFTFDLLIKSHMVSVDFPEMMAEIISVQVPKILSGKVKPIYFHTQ
Summary of the method: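 HEK293 cells stably carrying UAS-beta-lactamase reporter, 2,000/well, given compounds plus R1881 agonist and incubated 16 h at 37C. LiveBLAzer B/G FRET substrate then added for 2 h at room temperature before fluorescence reading.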

[7] = qHTS assay to identify small molecule antagonists of the androgen receptor (AR) signaling pathway using the MDA cell line - cell viability counter screen (AID 743041; note: nearly all actives have a fitted effect of over 45% in size; note: potency is the fitted concentration of half-maximal effect); settings: MDA-kb2 viability, CellTiter-Fluor, 16 h, cells co-treated with R1881 androgen agonist; viability change, negative = cytotoxic: at 70.3 µM (top of the series)
Summary of the method: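 Cells were plated at 3,000 per well and left 5 h. Compounds in DMSO were then pinned in, followed by R1881. After 16 h at 37C, CellTiter-Fluor fluorescence gave viability.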

[8] = qHTS assay to identify small molecule antagonists of the thyroid receptor (TR) signaling pathway - cell viability counter screen (AID 743064); settings: GH3.TRE-Luc viability, CellTiter-Fluor, 24 h; activity change, negative = cytotoxic: at 70.3 µM (top of the series) unless noted; note: nearly all actives have a fitted effect of over 50% in size; note: potency is the fitted concentration of half-maximal effect
Summary of the method: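 GH3.TRE-Luc rat pituitary cells dosed after 4 hr plating, co-stimulated with T3 at 1 nM final, incubated 23.5 h at 37 C. Viability measured in the same wells by CellTiter-Fluor fluorescence after 30 min further at 37 C.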

[9] = system: thyroid hormone receptor (rat, GH3 cells); experiment: qHTS assay to identify small molecule agonists of the thyroid receptor (TR) signaling pathway (AID 743066; calls by dose curve; note: potency is the fitted concentration of half-maximal effect; for activation: % is set by controls: 0 for no effect and ±100 for the full control effect); settings: GH3.TRE-Luc cells, TR agonist luciferase, 24 h; activation: at 83.9 µM (top of the series) unless noted
[10] = biological target: Estrogen receptor (Homo sapiens) (UniProt P03372); experiment: qHTS assay to identify small molecule antagonists of the estrogen receptor alpha (ER-alpha) signaling pathway (AID 743069; active = well fitted curve in the direction sought with a large enough effect in the signal ratio in the repeat runs, not every such curve was filed as active; inconclusive = weak or mixed curves, or effect the other way; inactive = no such curve, though single readings can be large or run the other way; the % refers to the signal ratio; note: potency is the fitted concentration of half-maximal effect); settings: HEK293 ER-alpha-UAS-bla, beta-lactamase ratio, antagonist mode; activity, negative = inhibition: at 69.4 µM (top of the series) unless noted
Chain of UniProt P03372 (P03372 whole entry, looked up): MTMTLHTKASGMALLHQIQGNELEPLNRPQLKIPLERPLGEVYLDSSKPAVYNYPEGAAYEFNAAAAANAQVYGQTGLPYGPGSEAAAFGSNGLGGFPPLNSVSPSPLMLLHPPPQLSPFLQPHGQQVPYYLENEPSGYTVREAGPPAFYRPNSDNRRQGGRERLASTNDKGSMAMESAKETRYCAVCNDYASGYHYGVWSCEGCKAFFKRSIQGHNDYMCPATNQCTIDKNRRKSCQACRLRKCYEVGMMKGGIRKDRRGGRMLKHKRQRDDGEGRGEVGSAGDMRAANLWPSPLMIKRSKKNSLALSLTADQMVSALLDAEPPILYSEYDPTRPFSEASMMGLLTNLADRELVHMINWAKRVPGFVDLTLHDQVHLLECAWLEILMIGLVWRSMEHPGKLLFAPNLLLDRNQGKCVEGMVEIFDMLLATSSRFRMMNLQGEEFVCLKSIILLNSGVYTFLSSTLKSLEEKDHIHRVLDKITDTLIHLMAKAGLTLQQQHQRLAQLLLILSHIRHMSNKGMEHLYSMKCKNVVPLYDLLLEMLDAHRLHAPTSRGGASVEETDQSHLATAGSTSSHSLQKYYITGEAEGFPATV
Summary of the method: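 ER-alpha-UAS-bla GripTite HEK293 line; 2% charcoal-stripped FBS overnight; plated, 4 hr 37C/5% CO2; cpd in DMSO + 17beta-estradiol, 18 hr 37C; LiveBLAzer B/G FRET substrate 2 hr RT; fluorescence intensity.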

[11] = qHTS assay to identify small molecule antagonists of the estrogen receptor alpha (ER-alpha) signaling pathway - cell viability counter screen (AID 743074; calls by dose curve;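 note: HEK293 cells carrying ER-alpha-UAS-bla reporter stimulated with 17beta-estradiol; potency is the fitted concentration of half-maximal effect; nearly all actives have a fitted effect of over 45% in size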)
[12] = biological target: Estrogen receptor (Homo sapiens) (UniProt P03372); experiment: qHTS assay to identify small molecule agonists of the estrogen receptor alpha (ER-alpha) signaling pathway using the BG1 cell line (AID 743079); settings: BG1Luc4E2 cells, ERE-luciferase agonist, 22 h; activation: at 70.3 µM (top of the series) unless noted; note: potency is the fitted concentration of half-maximal effect; nearly all actives have a fitted effect of over 20% in size
[13] = qHTS assay to identify small molecule antagonists of the estrogen receptor alpha (ER-alpha) signaling pathway using the BG1 cell line (AID 743080; calls by dose curve;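 note: BG1 cells stimulated with 17beta-estradiol alongside compound; nearly all actives have a fitted effect of over 25% in size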; note: potency is the fitted concentration of half-maximal effect); settings: BG1Luc4E2 ERE-luciferase antagonist mode, luminescence; activity change, negative = inhibition: at 70.3 µM (top of the series) unless noted
Summary of the method: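 BG1-Luc-4E2 cells (endogenous full-length ER-alpha, stable 4×ERE-luciferase) were starved 5 days in phenol-red-free medium with 10% charcoal-stripped FBS, plated 24 h, then given compound plus 17beta-estradiol for 21.5 h at 37 C; ONE-Glo luminescence read after 30 min.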

[14] = qHTS assay to identify small molecule antagonists of the estrogen receptor alpha (ER-alpha) signaling pathway using the BG1 cell line - cell viability counter screen (AID 743081); settings: BG1Luc4E2 viability, CellTiter-Fluor, 22 h; activity change, negative = cytotoxicity: at 70.3 µM (top of the series) unless noted;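 note: compound given together with 17beta-estradiol as the ER stimulus; potency is the fitted concentration of half-maximal effect; nearly all actives have a fitted effect of over 45% in size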
[15] = qHTS assay to identify aromatase inhibitors - cell viability counter screen (AID 743084); settings: MCF-7 aro ERE viability, CellTiter-Fluor, 24 h; activity change, negative = cytotoxicity: at 70.3 µM (top of the series) unless noted;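 note: cells stimulated with testosterone during compound exposure; potency is the fitted concentration of half-maximal effect; nearly all actives have a fitted effect of over 55% in size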
[16] = biological target: Aryl hydrocarbon receptor (Homo sapiens) (UniProt P35869); experiment: qHTS assay to identify small molecule that activate the aryl hydrocarbon receptor (AhR) signaling pathway (AID 743085); note: potency is the fitted concentration of half-maximal effect; nearly all actives have a fitted effect of over 15% in size
Chain of UniProt P35869 (P35869 whole entry, looked up): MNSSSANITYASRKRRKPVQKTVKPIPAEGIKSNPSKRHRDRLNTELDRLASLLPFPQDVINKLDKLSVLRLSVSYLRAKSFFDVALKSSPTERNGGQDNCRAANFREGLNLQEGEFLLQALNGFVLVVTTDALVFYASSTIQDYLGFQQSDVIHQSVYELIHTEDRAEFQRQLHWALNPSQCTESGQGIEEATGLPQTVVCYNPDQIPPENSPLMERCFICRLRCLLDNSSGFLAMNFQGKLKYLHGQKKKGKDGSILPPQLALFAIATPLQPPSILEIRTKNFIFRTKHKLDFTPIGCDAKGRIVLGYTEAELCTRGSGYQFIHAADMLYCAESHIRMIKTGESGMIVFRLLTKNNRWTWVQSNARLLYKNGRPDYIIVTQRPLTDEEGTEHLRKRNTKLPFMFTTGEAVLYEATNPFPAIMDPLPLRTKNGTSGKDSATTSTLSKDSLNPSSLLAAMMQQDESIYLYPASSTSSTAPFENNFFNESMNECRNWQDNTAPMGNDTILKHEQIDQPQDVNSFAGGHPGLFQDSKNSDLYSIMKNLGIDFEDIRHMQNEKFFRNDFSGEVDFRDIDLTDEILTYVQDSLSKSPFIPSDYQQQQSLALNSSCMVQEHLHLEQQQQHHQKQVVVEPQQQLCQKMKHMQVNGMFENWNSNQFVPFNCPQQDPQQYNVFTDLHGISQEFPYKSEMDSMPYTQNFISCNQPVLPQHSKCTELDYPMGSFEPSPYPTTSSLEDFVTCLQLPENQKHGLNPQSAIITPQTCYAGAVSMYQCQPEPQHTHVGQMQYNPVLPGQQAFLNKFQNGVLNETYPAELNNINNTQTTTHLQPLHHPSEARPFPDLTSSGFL
Summary of the method: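 HepG2 cells stably carrying a 20-DRE firefly luciferase reporter (HG2L7.5c1) treated with compound for 24 hr at 37C. Luciferase read by ONE-Glo luminescence, with CellTiter-Fluor viability read first.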

[17] = biological target: Peroxisome proliferator-activated receptor gamma (Homo sapiens) (UniProt P37231); experiment: qHTS assay to identify small molecule agonists of the peroxisome proliferator-activated receptor gamma (PPARg) signaling pathway (AID 743094; active = well fitted activation curve with a large enough effect in the signal ratio in the repeat runs, not every such curve was filed as active; inconclusive = weak or mixed curves, or effect the other way; inactive = no such curve, though single readings can be large or run the other way; the % refers to the signal ratio; note: potency is the fitted concentration of half-maximal effect); settings: HEK293H PPARg-UAS-bla, beta-lactamase FRET ratio, 17 h; activation: at 57 µM (top of the series) unless noted
Chain of UniProt P37231 (P37231 whole entry, looked up): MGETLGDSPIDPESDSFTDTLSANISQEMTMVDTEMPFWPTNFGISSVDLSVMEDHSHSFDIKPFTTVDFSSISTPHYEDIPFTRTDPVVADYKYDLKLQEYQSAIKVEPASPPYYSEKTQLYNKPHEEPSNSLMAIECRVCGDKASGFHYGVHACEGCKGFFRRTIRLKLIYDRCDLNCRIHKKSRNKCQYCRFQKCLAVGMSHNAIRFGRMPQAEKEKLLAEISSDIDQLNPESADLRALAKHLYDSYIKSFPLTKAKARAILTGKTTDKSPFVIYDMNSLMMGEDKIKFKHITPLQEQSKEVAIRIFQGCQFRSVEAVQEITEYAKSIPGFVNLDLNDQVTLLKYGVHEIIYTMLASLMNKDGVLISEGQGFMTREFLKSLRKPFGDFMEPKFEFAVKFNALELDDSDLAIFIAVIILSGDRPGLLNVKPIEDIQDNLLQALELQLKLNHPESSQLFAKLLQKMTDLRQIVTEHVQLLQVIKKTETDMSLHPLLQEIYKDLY
Summary of the method: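 GeneBLAzer PPARg UAS-bla HEK293H cells were plated, rested 5 h, then exposed to compounds for 17 h at 37C. Beta-lactamase activity was read by LiveBLAzer B/G FRET substrate fluorescence after 1 h at room temperature.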

[18] = biological target: Glucocorticoid receptor (Homo sapiens) (UniProt P04150); experiment: qHTS assay to identify small molecule antagonists of the glucocorticoid receptor (GR) signaling pathway (AID 720692; active = well fitted inhibition curve with a large enough effect in the signal ratio in the repeat runs, not every such curve was filed as active; inconclusive = weak or mixed curves, or effect the other way; inactive = no such curve, though single readings can be large or run the other way; the % refers to the signal ratio; note: % is set by controls: 0 for no effect and ±100 for the full control effect); settings: GR-bla HeLa, beta-lactamase FRET ratio, dexamethasone-stimulated, 18 h; activity change, negative = inhibition: at 58.5 µM (top of the series) unless noted
Chain of UniProt P04150 (P04150 whole entry, looked up): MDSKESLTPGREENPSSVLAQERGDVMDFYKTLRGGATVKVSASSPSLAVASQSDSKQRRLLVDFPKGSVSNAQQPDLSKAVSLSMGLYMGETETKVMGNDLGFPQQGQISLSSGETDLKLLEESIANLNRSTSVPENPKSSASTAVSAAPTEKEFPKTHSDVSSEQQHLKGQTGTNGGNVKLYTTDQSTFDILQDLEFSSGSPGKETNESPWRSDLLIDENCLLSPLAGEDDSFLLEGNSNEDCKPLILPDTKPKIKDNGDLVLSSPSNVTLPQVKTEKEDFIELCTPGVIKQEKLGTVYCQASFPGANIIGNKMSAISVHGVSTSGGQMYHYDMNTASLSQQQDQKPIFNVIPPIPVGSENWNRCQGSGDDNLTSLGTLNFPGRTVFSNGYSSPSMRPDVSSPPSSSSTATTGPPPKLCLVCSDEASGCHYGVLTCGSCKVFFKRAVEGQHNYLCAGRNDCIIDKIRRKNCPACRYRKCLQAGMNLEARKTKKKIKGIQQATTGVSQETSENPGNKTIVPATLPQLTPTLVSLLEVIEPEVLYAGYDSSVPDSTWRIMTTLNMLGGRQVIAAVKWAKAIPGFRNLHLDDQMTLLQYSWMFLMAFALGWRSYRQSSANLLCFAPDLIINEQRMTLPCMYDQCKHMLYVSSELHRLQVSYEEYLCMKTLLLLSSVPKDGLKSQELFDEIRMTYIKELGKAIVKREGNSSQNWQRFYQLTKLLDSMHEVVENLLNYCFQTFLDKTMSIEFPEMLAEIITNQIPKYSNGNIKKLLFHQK
Summary of the method: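 GR-bla HeLa cells carrying a GRE-driven beta-lactamase reporter received compound after 4 h plating, then dexamethasone (5 nM final). After 18 h at 37C, the FRET substrate was loaded for 2 h at room temperature and fluorescence read.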

[19] = qHTS assay for identifying genotoxic compounds that show differential cytotoxicity against isogenic chicken DT40 cell lines with known DNA damage response pathways - wild type cell line (AID 743012); settings: DT40 wild type chicken cells viability, CellTiter-Glo, 40 h; activity change, negative = cytotoxicity: at 68.4 µM (top of the series) unless noted; note: % is set by controls: 0 for no effect and ±100 for the full control effect; nearly all actives have a fitted effect of over 60% in size
Summary of the method: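 Wild-type DT40 cells (300/well) exposed to compounds for 40 hours at 37 C/5% CO2. Viability read by CellTiter-Glo luminescence after 30 min at room temperature.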

[20] = qHTS assay to identify small molecule antagonists of the thyroid receptor (TR) signaling pathway (AID 743065); note: nearly all actives have a fitted effect of over 55% in size; note: potency is the fitted concentration of half-maximal effect
Summary of the method: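 Antagonism measured as loss of luciferase signal in GH3 cells stably carrying a TRE-luciferase reporter, co-treated with compound and T3 (1 nM final) for 23.5 h at 37 C. Viability was read in the same well by CellTiter-Fluor.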

[21] = qHTS assay for identifying genotoxic compounds that show differential cytotoxicity against isogenic chicken DT40 cell lines with known DNA damage response pathways - Rev3 mutant cell line (AID 743014); settings: chicken DT40 Rev3-/- viability, CellTiter-Glo, 40 h; activity, negative = cytotoxicity: at 68.4 µM (top of the series) unless noted; note: nearly all actives have a fitted effect of over 55% in size; note: potency is the fitted concentration of half-maximal effect
Tags give direction and shape of the fitted curve or compound fluorescence and quenching.

SMILES: CO[C@H](C(=O)[C@@H](O)[C@@H](C)O)C1Cc2cc3cc(O[C@H]4C[C@@H](O[C@H]5C[C@@H](O)[C@H](O)[C@@H](C)O5)[C@@H](O)[C@@H](C)O4)c(C)c(O)c3c(O)c2C(=O)[C@H]1O[C@H]1C[C@@H](O[C@H]2C[C@@H](O[C@H]3C[C@](C)(O)[C@H](O)[C@@H](C)O3)[C@H](O)[C@@H](C)O2)[C@H](O)[C@@H](C)O1 (stereo partly specified)
- Potency [1]: active: 42.2 nM and active: 53.1 nM
- Potency [2]: active: 27.8 µM and inconclusive: 11.9 µM [inhibitor, partial curve]
- Potency [3]: inconclusive: 20 µM [fluorescent, partial curve, poor fit]
- Potency [4]: active: 1.34 µM
- Potency [5]: inconclusive: 0.213 µM [cytotoxic, full curve, poor fit]
- Potency [6]: inconclusive: 21.3 µM [rising, partial curve] and inconclusive: 23.9 µM [rising, partial curve]
- Potency [7]: inconclusive: 33.5 µM
- Potency [8]: inconclusive: 29.8 µM [rising, partial curve] and inconclusive: 26.6 µM [rising, partial curve]
- Potency [9]: inconclusive: 1.19 µM [inhibitor, partial curve, poor fit]
- activation [9]: inconclusive: -8.1% [phenotype inactive]
- Potency [10]: active: 301 nM [inconclusive] and active: 190 nM [inconclusive]
- Potency [11]: inconclusive: 2.13 µM [rising, full curve, poor fit]
- Potency [12]: inconclusive: 266 nM [inhibitor, full curve] and inconclusive: 298 nM [inhibitor, full curve]
- Potency [13]: active: 266 nM and active: 335 nM
- Potency [14]: inconclusive: 23.7 µM [rising, partial curve, poor fit]
- Potency [15]: inconclusive: 0.211 µM [cytotoxic, partial curve, poor fit]
- Potency [16]: inconclusive: 0.841 µM [activator, full curve, poor fit]
- Potency [17]: inconclusive: 3.01 µM [rising, partial curve] and inconclusive: 23.9 µM [rising, partial curve]

SMILES: [O]=[Bi][O][Bi]=[O]
- activation [1]: inconclusive: -2.33%
- Potency [2]: inactive
- activity change, negative = inhibition [18]: inconclusive: 3.57%
- Potency [19]: inactive
- Potency [5]: inconclusive: 0.19 µM [cytotoxic, full curve, poor fit]
- Potency [6]: inactive
- Potency [20]: inactive

SMILES: O=C(Nc1ccc(/C=C/c2ccc(NC(=O)c3cc(S(=O)(=O)O)c4cccnc4c3O)cc2S(=O)(=O)O)c(S(=O)(=O)O)c1)c1cc(S(=O)(=O)O)c2cccnc2c1O
- Potency [1]: inconclusive: 21.1 µM [falling, partial curve, poor fit]
- Potency [2]: inconclusive: 21.1 µM [fluorescent, partial curve]
- Potency [18]: inactive
- Potency [19]: inactive
- Potency [21]: inconclusive: 26.6 µM [cytotoxic, partial curve]
- Potency [8]: inconclusive: 33.5 µM [cytotoxic, single point]
- Potency [20]: inconclusive: 33.5 µM [inhibitor, single point]
- Potency [15]: inconclusive: 29.8 µM [cytotoxic, partial curve, poor fit]

SMILES: COc1ccc(C2(C#N)CCC(C(=O)O)CC2)cc1OC1CCCC1 (stereo unspecified)
- Potency [1]: inconclusive: 1.19 µM [activator, single point]
- Potency [2]: inconclusive: 11.9 µM [inhibitor, partial curve, poor fit]
- Potency [21]: inactive
- Potency [5]: inconclusive: 0.0034 µM [rising, full curve, poor fit]
- Potency [7]: inactive
- Potency [8]: inactive
- Potency [12]: active: 29.8 µM
- Potency [13]: inactive
